From patent publication US20080292628A1 (AMPROTEIN, published 2008)

B1: TNFRII-Fc (Enbrel) (Fc fusion)
chain: LPAQVAFTPYAPEPGSTCRLREYYDQTAQMCCSKCSPGQHAKVFCTKTSDTVCDSCEDSTYTQLWNWVPECLSCGSRCSSDQVETQACTREQNRICTCRPGWYCALSKQEGCRLCAPLRKCRPGFGVARPGTETSDVVCKPCAPGTFSNTTSSTDICRPHQICNVVAIPGNASMDAVCTSTSPTRSMAPGAVHLPQPVSTRSQHTQPTPEPSTAPSTSFLLPMGPSPPAEGSTGD[human IgG1 Fc left out]
notes: also called marketed TNFRII-Fc
B2: TNFRII-Fc-IL-1ra (Fc fusion)
chain: LPAQVAFTPYAPEPGSTCRLREYYDQTAQMCCSKCSPGQHAKVFCTKTSDTVCDSCEDSTYTQLWNWVPECLSCGSRCSSDQVETQACTREQNRICTCRPGWYCALSKQEGCRLCAPLRKCRPGFGVARPGTETSDVVCKPCAPGTFSNTTSSTDICRPHQICNVVAIPGNASMDAVCTSTSPTRSMAPGAVHLPQPVSTRSQHTQPTPEPSTAPSTSFLLPMGPSPPAEGSTGD[about 400 residues with a human IgG1 Fc left out]

Biological target: human TNF-alpha (human, UniProt P01375 partial chain)
Experiment: cell-based or functional assay

Sequence of human TNF-alpha (P01375 77-233 limits assumed): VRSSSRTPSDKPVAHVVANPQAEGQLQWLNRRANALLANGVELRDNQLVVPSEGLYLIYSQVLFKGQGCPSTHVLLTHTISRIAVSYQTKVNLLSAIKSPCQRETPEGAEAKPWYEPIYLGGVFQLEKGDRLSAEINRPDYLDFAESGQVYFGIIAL

| Binder | EC50, neutralization of human TNF-alpha (500 pg/ml) killing of L929 cells [ng/mL] |
| --- | --- |
| B1 | 3 to 4 |
| B2 | 10 |
